Consider 10 molecules from patent US20240181007A1, “COMPOSITIONS AND METHODS FOR TREATING PULMONARY HYPERTENSION” (Acceleron Pharma Inc., priority 2021, published 2024).

The Kd is the concentration at which binding is half-saturated. A lower Kd goes with tighter binding. What is called koff is the rate constant with which the complex falls apart. By kon is commonly meant a measure of how fast the partners come together.

To fix the notation:
T1: activin A (UniProt P08476 311-426)
T1 sequence (looked up): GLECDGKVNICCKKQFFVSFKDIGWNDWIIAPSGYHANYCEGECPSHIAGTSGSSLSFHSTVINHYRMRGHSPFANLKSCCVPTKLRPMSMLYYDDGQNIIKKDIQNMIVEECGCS

T2: BMP9 (UniProt Q9UK05 320-429)
T2 sequence (looked up): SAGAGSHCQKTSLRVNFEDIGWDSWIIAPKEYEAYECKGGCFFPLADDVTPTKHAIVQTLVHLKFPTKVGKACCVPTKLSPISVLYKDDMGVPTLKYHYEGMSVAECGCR

T3: GDF11 (UniProt O95390 299-407)
T3 sequence (looked up): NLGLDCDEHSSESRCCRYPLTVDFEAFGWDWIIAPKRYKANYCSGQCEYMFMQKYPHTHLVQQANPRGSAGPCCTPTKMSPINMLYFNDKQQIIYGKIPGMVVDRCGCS

T4: activin B (UniProt P09529 293-407)
T4 sequence (looked up): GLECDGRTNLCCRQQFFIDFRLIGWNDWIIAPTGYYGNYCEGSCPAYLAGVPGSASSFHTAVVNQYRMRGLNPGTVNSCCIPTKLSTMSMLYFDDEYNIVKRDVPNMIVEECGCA

T5: BMP10 (UniProt O95393 317-424)
T5 sequence (looked up): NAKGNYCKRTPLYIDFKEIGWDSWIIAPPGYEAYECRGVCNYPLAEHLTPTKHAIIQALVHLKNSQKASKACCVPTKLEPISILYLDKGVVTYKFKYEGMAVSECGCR

B1: ActRIIB(F82I)-G1Fc (Fc fusion)
chain: GRGEAETRECIYYNANWELERTNQSGLERCEGEQDKRLHCYASWRNSSGTIELVKKGCWLDDINCYDRQECVATEENPQVYFCCCEGNFCNERFTHLPEAGGPEVTYEPPPTAPTG[human IgG1 Fc and a few adjoining residues left out here]
notes: Homodimeric Fc fusion; substitution already in the entry; also called ActRIIB(F82I)-Fc
B2: ActRIIB(F82K)-G1Fc (Fc fusion)
chain: GRGEAETRECIYYNANWELERTNQSGLERCEGEQDKRLHCYASWRNSSGTIELVKKGCWLDDKNCYDRQECVATEENPQVYFCCCEGNFCNERFTHLPEAGGPEVTYEPPPTAPTG[human IgG1 Fc and a few adjoining residues left out here]
notes: Homodimeric Fc fusion; substitution already in the entry; also called ActRIIB(F82K)-Fc
B3: ActRIIB(K55A)-G1Fc (Fc fusion)
chain: GRGEAETRECIYYNANWELERTNQSGLERCEGEQDARLHCYASWRNSSGTIELVKKGCWLDDFNCYDRQECVATEENPQVYFCCCEGNFCNERFTHLPEAGGPEVTYEPPPTAPTG[human IgG1 Fc and a few adjoining residues left out here]
notes: Homodimeric Fc fusion; substitution already in the entry; also called ActRIIB(K55A)-Fc
B4: L79K (homodimeric ActRIIB-Fc construct) (Fc fusion)
chain: GRGEAETRECIYYNANWELERTNQSGLERCEGEQDKRLHCYASWRNSSGTIELVKKGCWKDDFNCYDRQECVATEENPQVYFCCCEGNFCNERFTHLPEAGGPEVTYEPPPTAPTG[human IgG1 Fc and a few adjoining residues left out here]
B5: ActRIIB E50L (Fc fusion)
ActRIIB extracellular domain-G1Fc fusion chain: GRGEAETRECIYYNANWELERTNQSGLERCLGEQDKRLHCYASWRNSSGTIELVKKGCWLDDFNCYDRQECVATEENPQVYFCCCEGNFCNERFTHLPEAGGPEVTYEPPPTAPTG[human IgG1 Fc and a few adjoining residues left out here]
notes: also called ActRIIB(E50L)-G1Fc
B6: ActRIIB(F82I-N83R)-G1Fc (Fc fusion)
chain: GRGEAETRECIYYNANWELERTNQSGLERCEGEQDKRLHCYASWRNSSGTIELVKKGCWLDDIRCYDRQECVATEENPQVYFCCCEGNFCNERFTHLPEAGGPEVTYEPPPTAPTG[human IgG1 Fc and a few adjoining residues left out here]
notes: Homodimeric Fc fusion
B7: ActRIIB L38N/L79R (Fc fusion)
ActRIIB extracellular domain-G1Fc fusion chain: GRGEAETRECIYYNANWENERTNQSGLERCEGEQDKRLHCYASWRNSSGTIELVKKGCWRDDFNCYDRQECVATEENPQVYFCCCEGNFCNERFTHLPEAGGPEVTYEPPPTAPTG[human IgG1 Fc and a few adjoining residues left out here]
notes: also called ActRIIB(L38N-L79R)-G1Fc
B8: ActRIIB(F82T-N83R)-G1Fc (Fc fusion)
chain: GRGEAETRECIYYNANWELERTNQSGLERCEGEQDKRLHCYASWRNSSGTIELVKKGCWLDDTRCYDRQECVATEENPQVYFCCCEGNFCNERFTHLPEAGGPEVTYEPPPTAPTG[human IgG1 Fc and a few adjoining residues left out here]
notes: Homodimeric Fc fusion; substitutions already in the entry
B9: ActRIIB(F82K-N83R)-G1Fc (Fc fusion)
chain: GRGEAETRECIYYNANWELERTNQSGLERCEGEQDKRLHCYASWRNSSGTIELVKKGCWLDDKRCYDRQECVATEENPQVYFCCCEGNFCNERFTHLPEAGGPEVTYEPPPTAPTG[human IgG1 Fc and a few adjoining residues left out here]
notes: as for B8
B10: ActRIIB V99G (Fc fusion)
ActRIIB extracellular domain-G1Fc fusion chain: GRGEAETRECIYYNANWELERTNQSGLERCEGEQDKRLHCYASWRNSSGTIELVKKGCWLDDFNCYDRQECVATEENPQGYFCCCEGNFCNERFTHLPEAGGPEVTYEPPPTAPTG[human IgG1 Fc and a few adjoining residues left out here]
notes: also called ActRIIB(V99G)-G1Fc

The target of the first assay is T1, activin A. Description: cell-based or functional assay.
B1: the “IC50 (ng/ml), A204 CAGA12 luciferase reporter assay” value (“IC50 (ng/ml)” below) is 11 ng/mL.
On to B2, for which the “IC50 (ng/ml)” value came to 10 ng/mL.
Take B3: the “IC50 (ng/ml)” value was determined as 15 ng/mL.

For another assay, the target named is T2, BMP9. Description: cell-based or functional assay.
On to B1, for which the “IC50 (ng/ml)” value came to 277 ng/mL.
With B2, the “IC50 (ng/ml)” value is roughly 5000 ng/mL.
Turning to B3, the “IC50 (ng/ml)” value was 122 ng/mL.

Another assay has as its target T3, GDF11. Description: cell-based or functional assay.
On to B1, for which the “IC50 (ng/ml)” value stood at 9 ng/mL.
Take B4: the “IC50 (ng/ml)” value amounted to 477 ng/mL.
With B2, the “IC50 (ng/ml)” value is 15 ng/mL.
As to B3, the “IC50 (ng/ml)” value worked out at 11 ng/mL.

The next assay addresses T1, activin A. Description: SPR (Biacore), 37 C; Fc fusion captured via anti-Fc, ligand injected. Here is the method: (§1) To determine ligand binding profiles of variant ActRIIB-Fc homodimers, a Biacore™-based binding assay was used to compare ligand binding kinetics of certain variant ActRIIB-Fc polypeptides. ActRIIB-Fc polypeptides to be tested were independently captured onto the system using an anti-Fc antibody. Ligands were then injected and allowed to flow over the captured receptor protein. ActRIIB-G1Fc was used as the control polypeptide.
Turning to B5, the affinity, expressed as Kd, was 0.0456 nM; the koff was 0.000858 s⁻¹; the kon amounted to 1.88e+07 M⁻¹ s⁻¹.
In the same order, the values of B6 are 0.327 nM, 0.00583 s⁻¹ and 1.79e+07 M⁻¹ s⁻¹.
B7 came in with a Kd of 0.339 nM, a koff of 0.00444 s⁻¹ and a kon of 1.31e+07 M⁻¹ s⁻¹.
Molecule B8 yielded a Kd of 0.2 nM, a koff of 0.00482 s⁻¹ and a kon of 2.41e+07 M⁻¹ s⁻¹.
Molecule B9 yielded a Kd of 0.513 nM, a koff of 0.00812 s⁻¹ and a kon of 1.58e+07 M⁻¹ s⁻¹.
For B10, the binding result is reported as “no binding”.

Another assay has as its target T4, activin B. Described as above. The procedure: as §1
For the molecule B5, the Kd was found to be 0.159 nM, the koff was found to be 0.000262 s⁻¹ and the kon stood at 1.64e+06 M⁻¹ s⁻¹.
Take B6: the Kd amounted to 0.0073 nM, the koff stood at 0.000161 s⁻¹ and the kon amounted to 2.22e+07 M⁻¹ s⁻¹.
The matching figures for B7: 0.0369 nM, 0.000278 s⁻¹ and 7.53e+06 M⁻¹ s⁻¹.
As for B8, the Kd was 0.0109 nM, the koff turned out to be 0.000246 s⁻¹ and the kon was 2.25e+07 M⁻¹ s⁻¹.
B9 registered a Kd of 0.0085 nM, a koff of 0.000203 s⁻¹ and a kon of 2.39e+07 M⁻¹ s⁻¹.
Regarding B10, the Kd came out at 0.847 nM, the koff amounted to 0.00218 s⁻¹ and the kon stood at 2.58e+06 M⁻¹ s⁻¹.

For another assay, the target named is T1, activin A. Description: cell-based or functional assay. This is another data set of the same source.
B6: the “IC50 (nM), A204 CAGA12 luciferase reporter assay” value (from here on “IC50 (nM)”) was 1.67 nM.
On to B8, for which the “IC50 (nM)” value was 1.52 nM.
Take B9: the “IC50 (nM)” value is 1.32 nM.

A further assay concerns the target T4, activin B. Description: cell-based or functional assay.
As for B6, the “IC50 (nM)” value worked out at 0.08 nM.
Consider B8, for which the “IC50 (nM)” value amounted to 0.11 nM.
Take B9: the “IC50 (nM)” value was 0.09 nM.

The next assay deals with T5, BMP10. Description: cell-based or functional assay.
Consider B6, for which the “IC50 (nM)” value turned out to be 13.2 nM.
Regarding B8, the “IC50 (nM)” value came to 12.6 nM.
For the molecule B9, the “IC50 (nM)” value came out at 0.53 nM.

For the next assay, the target named is T3, GDF11. Description: cell-based or functional assay. This is another data set of the same source.
In the case of B6, the “IC50 (nM)” value was 9.95 nM.
For B8, the “IC50 (nM)” value amounted to 17.9 nM.
